PubChem BioAssay AID624171 (National Center for Advancing Translational Sciences (NCATS), 2012)
Among all 410,000 compounds or so, about 1,200 (0.29%) were called active. The inconclusive results got no clear call from the source; some entries with a clear call stand among them for comparison. Calls follow the shape of the dose curve; as a rule, active = well fitted activation curve with a large enough effect; inconclusive = small, poorly fitted or top-dose-only effect; inactive = flat fitted curve, though single readings scatter. A potency beside an inconclusive call is a rough fit, not a confirmed value.

Assay: qHTS of Nrf2 Activators; also: nearly all actives have a fitted effect of over 65% in size
Conditions: AREc32 ARE-luciferase reporter (MCF7-derived line), luminescence, 24 h; series mostly up to 46.1 µM
Outline: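 Quantitative high-throughput format: AREc32 reporter cells, 1000 per well, received compound by pin transfer and were incubated 24 hr at 37 deg C, 5% CO2, before Steady-Glo luminescence detection.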
Potency is read from the fitted curve at half-maximal effect; tags tell the direction and shape of the fitted curve.

Potency, inconclusive:
COc1ccc(/C=C/C(=O)c2ccc[nH]2)cc1OC 15.8 µM [activator, single point]
COc1ccccc1C#CC1=CC(=O)C[C@H](c2ccc(F)cc2)C1 15.8 µM [activator, partial curve, poor fit]
CC(C)(C)OC(=O)N/N=C/c1cccc([N+](=O)[O-])c1 3.16 µM [activator, partial curve, poor fit]
Cc1c(CN(C)C)c2c(n1C)C(=O)c1ccc(Br)cc1-2 7.08 µM [activator, partial curve, poor fit]
CC(=O)SC1CC(=O)N(c2c(C)cccc2C)C1=O (configuration not stated) 31.6 µM [activator, single point]
Cc1ccccc1Oc1nc2c(C)cccn2c(=O)c1/C=C(\C#N)C(=O)Nc1c(C)n(C)n(-c2ccccc2)c1=O 15.8 µM [activator, single point]
CS(=O)(=O)Nc1cccc2cccnc12 25.1 µM [activator, single point]
Cc1nnc(SC(=O)N2c3ccccc3Sc3ccccc32)s1 5.01 µM [activator, single point]
O=C(COc1ccccc1[N+](=O)[O-])Nc1ccc(Br)cc1 2.24 µM [activator, partial curve, poor fit]
O=C1C=C(c2cccs2)C[C@H](c2ccccc2)[C@H]1n1nnc([N+](=O)[O-])n1 14.1 µM [activator, single point]
CCOc1ccc(NC(=S)N(Cc2ccc(N(C)C)cc2)Cc2ccco2)cc1 25.1 µM [activator, partial curve, poor fit]
Cc1ccc(NC(=O)c2sc(Cl)nc2-c2ccccc2)cc1 15.8 µM [activator, single point]
CSc1nc(O)c(/C=C2\C=Nc3ccccc32)[nH]1 12.6 µM [activator, partial curve, poor fit]
Nc1nc(SCC(=O)N2N=C3/C(=C/c4ccco4)CCCC3C2c2ccco2)n[nH]1 (configuration not stated) 12.6 µM [activator, single point]
Cc1ccc(NC(=O)c2nc(S(=O)(=O)Cc3ccc(F)cc3)ncc2Cl)cc1C 5.62 µM [activator, single point]
Cc1ccc(C)n1-c1nccc(-c2ccco2)n1 12.6 µM [activator, partial curve]
COc1cccc(NC(=O)c2cc(Cl)nnc2Cl)c1 2.82 µM [activator, full curve, poor fit]
N/C(=C\C(=O)c1cc(Cl)ccc1O)C(Cl)(Cl)Cl 22.4 µM [activator, single point]
Cc1ccc(-n2nnnc2Sc2nc([N+](=O)[O-])nn2C)cc1C 20 µM [activator, single point]
O=C(Cc1nc(=O)c2ccccc2s1)Nc1ccccc1 4.47 µM [activator, full curve]
O=C(CCS(=O)(=O)Cc1ccccc1F)N1CCc2ccccc2C1 25.1 µM [activator, single point]
CCCNC(=O)CSc1c2c(nc3ccc(Cl)cc13)CCCC2 7.08 µM [activator, partial curve, poor fit]
CC(C)(/C=N/NC(=O)CSCc1ccc(Cl)cc1)CCC#N 20 µM [activator, single point]
O=C(CCS(=O)(=O)c1ccc(F)cc1)Nc1nc(-c2ccccn2)cs1 11.2 µM [activator, partial curve, poor fit]
c1ccc2oc(-c3ccc4nc[nH]c4c3)nc2c1 10 µM [activator, partial curve, poor fit]
N=c1n(CC(=O)c2cccc([N+](=O)[O-])c2)c2ccccc2n1Cc1ccccc1 3.16 µM [activator, partial curve, poor fit]
O=[N+]([O-])c1ccccc1N/N=C1\CC2CC=CC12 (configuration not stated) 17.8 µM [activator, partial curve, poor fit]
CC(=O)c1ccc(NC(=O)CSc2nnc(-c3ccco3)c(-c3ccco3)n2)cc1 15.8 µM [activator, single point]
O=S1(=O)CCS(=O)(=O)C1c1ccccc1 22.4 µM [activator, partial curve, poor fit]
COCCNc1c(-c2ccc(O)cc2)nc2ccc(Cl)cn12 22.4 µM [activator, single point]
O=C(CSCc1ccccc1)Nc1cc([N+](=O)[O-])ccc1F 25.1 µM [activator, single point]
COc1ccccc1NC(=O)CSc1ccc(-c2ccco2)nn1 3.55 µM [activator, full curve]
O=C(CCl)N(O)c1ccc(C=Cc2ccccc2)cc1 28.2 µM [activator, single point]
COc1ccc(/C=N\NS(=O)(=O)c2ccc(Br)cc2)cc1COc1ccccc1[N+](=O)[O-] 15.8 µM [activator, partial curve, poor fit]
Cc1cccc(-n2ncc(Cl)c(Cl)c2=O)c1 3.55 µM [activator, single point]
CC(C)CC(=O)Nc1nnc(-c2ccco2)s1 12.6 µM [activator, partial curve, poor fit]
CN(Cc1ccccc1)C(=O)c1ccc([N+](=O)[O-])o1 5.62 µM [activator, full curve]
CC(/C=N/n1c(-c2ccco2)n[nH]c1=S)=C\c1ccco1 17.8 µM [activator, partial curve, poor fit]
O=C1[C@H]2CCCC[C@H]2C(=O)N1CCCCN1CCN(c2nsc3ccccc23)CC1 17.8 µM [activator, single point]

Potency, inactive:
CC(C)c1ccc(CNC(=O)c2ccc(N3CCCC3)c(NC(=O)NCc3ccccc3)c2)cc1
O=C(CN1C(=O)CSc2ccc(S(=O)(=O)N3CCCC3)cc21)NCc1ccccc1Cl
CS(=O)(=O)Nc1ccc(C2=NN(S(C)(=O)=O)C(c3ccc4c(c3)OCO4)C2)cc1 (configuration not stated)
CCOc1ccc(C(=O)Nc2nnc(SCC(=O)NCC3CCCO3)s2)cc1 (configuration not stated)
CN(CC(=O)Nc1cccc(F)c1)C(=O)c1ccc(S(=O)(=O)N2CCCC2)cc1
CCOc1ccc(CNC(=O)CCCn2c(=O)c3cccn3c3cccnc32)cc1
CCOc1ccc(C(=O)N2CCc3cc(OC)c(OC)cc3C2COc2ccc3c(C)cc(=O)oc3c2)cc1OCC (configuration not stated)
CCn1c(C(=O)Nc2ccccc2C(=O)OC)cc2sc(Cl)cc21
Cc1cccc2cc(CN(C(=O)c3cnccn3)C3CCCCC3)c(Cl)nc12
COC(=O)c1ccc(COc2ccc3ccc(=O)oc3c2)o1
Cn1nc(C(F)(F)F)c2cc(C(=O)Nc3ccc(C(F)(F)F)cc3)sc21
CC(Sc1nnnn1-c1ccc(Cl)cc1)C(=O)NCC(=O)Nc1ccc(F)c(F)c1F (configuration not stated)
O=C(Nc1nnc(-c2ccccc2)s1)c1cc(S(=O)(=O)N2CCOCC2)c(Cl)cc1Cl
CCOc1ccc(-c2cc(C(=O)O)c3ccccc3n2)cc1
O=C(CSc1nc2[nH]c(=O)cc(O)c2s1)Nc1ccc(Cl)c(C(F)(F)F)c1
Cc1cc(C(=S)N2CCOCC2)c(C)n1-c1ccc(Cl)cc1
CC(C)Cc1nnc(NS(=O)(=O)c2ccc([N+](=O)[O-])cc2)s1
O=C(NCc1ccco1)c1ccc(Cl)c(S(=O)(=O)N2CCOCC2)c1
COCCNS(=O)(=O)c1ccc2c(c1)Cc1cc(S(=O)(=O)NCCOC)ccc1-2
O=S(=O)(c1ccc(NC(=S)NC23CC4CC(CC(C4)C2)C3)cc1)N1CCCCC1
COc1cccc(NC(=O)c2sc3nc(C)c(C(=O)Nc4ccc(C)cc4C)c(-c4ccco4)c3c2N)c1
CCc1c(C(C)=O)oc2ccc3c(C)cc(=O)oc3c12
COc1cc(CN(C(=O)Nc2cccc(Cl)c2)c2ccccn2)cc(OC)c1OC
CCCCn1c(N)c(N(CC(C)C)C(=O)c2ccc(-c3ccc(Cl)cc3)o2)c(=O)[nH]c1=O
NS(=O)(=O)c1ccc(N=Nc2c(-c3ccccc3)[nH]n(-c3nc(-c4ccccc4)cs3)c2=O)cc1
C#CCCCCCCC#CCN(C)C
Cc1ccc(NC(=O)N2CCN(c3cc(-c4noc(C)n4)ccc3C)CC2)c(F)c1
CC1=C(C(=O)OC2CCCCCCC2)C(c2cc3c(cc2Br)OCO3)CC(=O)N1 (configuration not stated)
Cc1c(-c2nc(-c3ccc4c(c3)OCO4)no2)nnn1-c1ccc(C(C)C)cc1

Potency, active:
N#C/C(=C/c1ccc(N2CCCCCC2)o1)c1cccc(F)c1 12.6 µM
Cc1cccc(-c2nc3cc([N+](=O)[O-])ccc3o2)c1 10 µM
c1ccc(N2CC3COc4ccccc4C3=N2)cc1 (configuration not stated) 8.91 µM
O=[N+]([O-])c1cc([N+](=O)[O-])c2c(=Nc3ccccc3)n(-c3ccccc3)n(O)c2c1 14.1 µM
